Source: US20250049939A1, “NOVEL FLT3 ANTIBODIES AND ANTIBODY-DRUG-CONJUGATES BASED THEREON, THERAPEUTIC METHODS AND USES THEREOF IN COMBINATION WITH TYROSINE KINASE INHIBITORS” (TUBULIS GmbH, priority 2021, published 2025)
Positions count from the first letter of the chain named.

B1: 29H1: chimeric anti-FLT3 antibody from mouse; VH SEQ ID NO: 13, VL SEQ ID NO: 14 (antibody, V domains shown)
VH: EVKLEESGGGLVQPGGSMKFFCVASGFTFSNYWMNWVRQSPEKGLEWVAQIKLKSDNYATRYAESVKGRFTISRDDSKSSVNLQMNNLRAEDTGIYYCTVSLARSDYWGQGTTLTVSSAS
VL: DVVMTQTPLTLSVAIGQPASISCKSSQSLLHSDGKTYLNWLLHRPGQSPKRLIYLVSKLDSGVPDRFTGSGSGTDFTLKISRVEAEDLGVYYCWQGTHFPYTFGGGTKLEIKR
modifications: Clone 29H1, heavy chain variable region without a signal seqeunce; Clone 29H1, light chain variable region without a signal seqeunce
B2: 30B12: chimeric anti-FLT3 antibody from mouse; VH SEQ ID NO: 15, VL SEQ ID NO: 16 (antibody, V domains shown)
VH: QVQLKVSGPGLVQPSQTLSLTCAVSGFSLSNYHVSWVRQPPGKGLEWIAAISSGGSTYYNSPLKSRLSISRDTSKSQVFLKMNSLQTEDTAIYFCTGEDGYTFGNVMDAWGQGASVTVSSA
VL: B1 VL with A14T, H31Y, H43Q, Y92F, I111R
modifications: Clone 30B12, heavy chain variable region without a signalseqeunce; Clone 30B12, light chain variable region without a signalseqeunce
B3: 27E7: chimeric anti-FLT3 antibody from mouse; VH SEQ ID NO: 11, VL SEQ ID NO: 12 (antibody, V domains shown)
VH: EVKLEESGGDLVQPGGSMKLSCVASGFTFRNYWMNWVRQSPEKGLEWVAQIRLKSDNYATHYAESVKGRFTMSRDDSKSSVYLQMNTLRAEDTGIYYCTVSLARSDYWGQGTTLTVSSA
VL: B1 VL with T7S, A14T, H31Y, H43Q, I111L
modifications: Clone 27E7, heavy chain variable region without a signal sequence; Clone 27E7, light chain variable region without a signal seqeunce

Columns and labels:
recombinant human FLT3 = target: T1, recombinant human FLT3 (Homo sapiens, UniProt P36888); assay: ELISA affinity to recombinant human FLT3; assay type: binding; details: chimeric Ab clones
T1 construct: purchased Sino Biological 10445-H08H
T1 sequence (P36888 27-541 limits assumed): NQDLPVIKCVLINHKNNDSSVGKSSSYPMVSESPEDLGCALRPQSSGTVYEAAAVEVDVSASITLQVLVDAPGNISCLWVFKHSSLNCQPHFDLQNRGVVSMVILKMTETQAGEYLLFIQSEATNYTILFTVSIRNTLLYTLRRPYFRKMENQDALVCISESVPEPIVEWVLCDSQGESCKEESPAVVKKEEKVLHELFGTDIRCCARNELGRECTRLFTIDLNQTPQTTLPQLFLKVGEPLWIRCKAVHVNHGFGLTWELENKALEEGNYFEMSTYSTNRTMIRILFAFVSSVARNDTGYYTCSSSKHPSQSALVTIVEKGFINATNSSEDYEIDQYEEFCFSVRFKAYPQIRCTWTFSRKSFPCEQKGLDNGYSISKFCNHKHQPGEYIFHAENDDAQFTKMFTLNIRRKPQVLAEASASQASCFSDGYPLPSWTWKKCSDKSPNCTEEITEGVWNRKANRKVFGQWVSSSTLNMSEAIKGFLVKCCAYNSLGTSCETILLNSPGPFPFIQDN
Source text: FIG. 1: Evaluation of epitope specificity and internalization capability of anti-FLT3 monoclonal antibodies. (A) Affinity of seven anti-FLT3 monoclonal antibody (mab) clones to recombinant human FLT3 measured in enzyme-linked immunosorbent assay (ELISA) normalized to the binding of the antibodies to BSA control. […] (B) Schematic FLT3 receptor. Black arrows indicate common mutations and blue arrows indicate the three identified epitopes of seven anti-FLT3 antibodies analyzed in linear epitope mapping by PEPperPRINT. Figure was created with BioRender.com. (C) Binding and temperature induced internalization of anti-FLT3 antibodies in Ba/F3 cells expressing human wildtype FLT3. Internalization was induced by incubation for 30 min at 37° C. (grey) compared to 4° C. (black). Remaining surface-bound antibody was detected in flow cytometry. MFI was normalized to control human IgG1 binding. MFI=mean fluorescence intensity. […] (D) Cell surface binding of 20D9 mab or control human IgG1 antibody to Ba/F3 cells stably expressing pMIY (Ba/F3-pMIY) empty vector (ev), human wildtype (hFLT3 wt) or ITD mutant human FLT3 (hFLT3ITD) was measured in flow cytometry. Mean±s.d. of n=3. (E) Temperature induced internalization of 4B12 mab in MOLM-13 (FLT3 positive) cells after 30 min incubation at 37° C. compared to 4° C. and HL-60 (FLT3 negative) after 37° C. incubation assessed in immunofluorescence staining. […] (F) Cell surface binding of 20D9 mab or control hIgG1 antibody to Ba/F3-pMIY ev, hFLT3 wt, murine (mFLT3 wt) or cynomolgues monkey FLT3 (cynoFLT3 wt) was measured in flow cytometry. […] (G) Cell surface binding of 20D9 mab or control hIgG1 antibody to Ba/F3-PMIY ev, hFLT3 wt or epitope mutant FLT3 (hFLT3/S50P/P54R) measured in flow cytometry. […] (H) Cell surface binding of 20D9 mab or control hIgG1 antibody to Ba/F3-PMIY ev, hFLT3 wt or human CD64 (hCD64) measured in flow cytometry. […]
Maxisorp plates were coated with human recombinant FLT3 protein (10445-H08H, Sino Biological). […] The fluorescence was read with excitation of 405 nm and emission at 500-550 nm. […]

[1] = system: MOLM-13 (FLT3 positive) cells; assay: Temperature induced internalization in MOLM-13, flow cytometry; assay type: cell-based, human; details: 30 min at 37° C. compared to 4° C.
Method: (§1) For antibody binding studies, cells were stained on ice with primary mouse, rat or human anti-FLT3 antibodies (in house) and secondary antibody Goat F(ab′)2 Anti-Human Ig-PE (2012-09), Goat Anti-Mouse IgG (H+L)-PE (1032-09) or Goat Anti-Rat IgG (H+L)-PE (3052-09) purchased from Southern Biotech. For internalization experiments, cells incubated with anti-FLT3 antibodies were washed and incubated for 30 min at 4° C. or 37° C. followed by staining with secondary antibody.

[2] = target: T2, human wildtype FLT3 (hFLT3 wt) (Homo sapiens, UniProt P36888); assay: Cell surface binding to Ba/F3 hFLT3 wt, flow cytometry
T2 construct: expressed in transfected cells; host or cells: Ba/F3 cells, retrovirally transduced with MSCV-IRES-YFP (pMIY) vector
T2 sequence (P36888 27-993): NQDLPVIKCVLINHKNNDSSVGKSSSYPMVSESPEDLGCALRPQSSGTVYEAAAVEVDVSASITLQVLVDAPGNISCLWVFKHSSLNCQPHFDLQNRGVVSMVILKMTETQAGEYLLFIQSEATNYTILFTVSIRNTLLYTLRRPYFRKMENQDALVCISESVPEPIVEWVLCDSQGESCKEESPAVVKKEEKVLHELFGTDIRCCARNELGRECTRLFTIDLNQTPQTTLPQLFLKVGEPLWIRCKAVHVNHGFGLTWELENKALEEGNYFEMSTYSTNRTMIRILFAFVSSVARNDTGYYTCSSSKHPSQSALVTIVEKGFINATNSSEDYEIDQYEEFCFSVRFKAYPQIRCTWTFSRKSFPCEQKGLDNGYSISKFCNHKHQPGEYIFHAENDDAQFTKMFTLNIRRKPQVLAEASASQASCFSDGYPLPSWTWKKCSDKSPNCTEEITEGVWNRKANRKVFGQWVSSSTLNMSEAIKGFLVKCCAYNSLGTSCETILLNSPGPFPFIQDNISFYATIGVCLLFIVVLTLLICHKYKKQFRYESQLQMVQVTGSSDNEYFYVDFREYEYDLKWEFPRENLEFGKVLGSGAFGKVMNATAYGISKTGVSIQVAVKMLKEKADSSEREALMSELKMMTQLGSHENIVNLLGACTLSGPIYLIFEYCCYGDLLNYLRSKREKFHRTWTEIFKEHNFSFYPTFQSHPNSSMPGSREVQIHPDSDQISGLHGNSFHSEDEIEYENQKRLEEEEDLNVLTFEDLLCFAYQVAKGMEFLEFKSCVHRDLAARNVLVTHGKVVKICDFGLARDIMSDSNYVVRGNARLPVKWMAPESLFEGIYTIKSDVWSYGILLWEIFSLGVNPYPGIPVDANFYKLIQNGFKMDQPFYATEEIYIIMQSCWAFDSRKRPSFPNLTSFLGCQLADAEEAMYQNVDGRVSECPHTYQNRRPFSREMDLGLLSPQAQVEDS
Method: as §1
For FLT3 expression analysis, cells were stained on ice with primary mouse anti-FLT3-AF647 antibodies for 30 min. For antibody binding studies, cells were stained on ice with chimeric (20D9) or humanized anti-FLT3 antibodies (in house) or IgG1 control with or without Leu234Ala/Leu235Ala (LALA)-mutation in the Fc region and secondary antibody goat F(ab′)2 Anti-Human IgG-AF647 (2042-31) purchased from Southern Biotech for 30 min, respectively. Binding and expression were subsequently measured at the flow cytometer (BD FACSCanto II) and the results were evaluated with FlowJo version 10.8.1.

[3] = target: T3, Ba/F3 cells expressing human wildtype FLT3 (Homo sapiens, UniProt P36888); assay: Temperature induced internalization in Ba/F3-FLT3, flow cytometry; assay type: cell-based; details: 30 min at 37° C. compared to 4° C.
T3 construct: expressed in transfected cells; host or cells: Ba/F3 cells, retrovirally transduced with MSCV-IRES-YFP (pMIY) vector
T3 sequence (P36888 27-993): T2 sequence (P36888 27-993)
Source text: FIG. 1: Evaluation of epitope specificity and internalization capability of anti-FLT3 monoclonal antibodies. (A) Affinity of seven anti-FLT3 monoclonal antibody (mab) clones to recombinant human FLT3 measured in enzyme-linked immunosorbent assay (ELISA) normalized to the binding of the antibodies to BSA control. […] (B) Schematic FLT3 receptor. Black arrows indicate common mutations and blue arrows indicate the three identified epitopes of seven anti-FLT3 antibodies analyzed in linear epitope mapping by PEPperPRINT. Figure was created with BioRender.com. (C) Binding and temperature induced internalization of anti-FLT3 antibodies in Ba/F3 cells expressing human wildtype FLT3. […] Remaining surface-bound antibody was detected in flow cytometry. […] MFI=mean fluorescence intensity. […] (D) Cell surface binding of 20D9 mab or control human IgG1 antibody to Ba/F3 cells stably expressing pMIY (Ba/F3-pMIY) empty vector (ev), human wildtype (hFLT3 wt) or ITD mutant human FLT3 (hFLT3ITD) was measured in flow cytometry. […] (E) Temperature induced internalization of 4B12 mab in MOLM-13 (FLT3 positive) cells after 30 min incubation at 37° C. compared to 4° C. and HL-60 (FLT3 negative) after 37° C. incubation assessed in immunofluorescence staining. […] (G) Cell surface binding of 20D9 mab or control hIgG1 antibody to Ba/F3-PMIY ev, hFLT3 wt or epitope mutant FLT3 (hFLT3/S50P/P54R) measured in flow cytometry. […]

Molecule | Affinity Kd (recombinant human FLT3) [µg/mL] | Internalization in MOLM-13 [1] [%] | Binding to Ba/F3-FLT3 cell line by flow cytometry [2] | Internalization in Ba/F3-FLT3 [3] [%]
B1 | 0.0284 | 53 | specifically bound | 71
B2 | 3.313 | – | – | –
B3 | 0.01153 | 69 | specifically bound | 82
